From the supplement of paper PMC11417369 come the findings set out here.

± gives the standard deviation of the averaged measurements. Some of the results follow.

The test system of the experiment is PfAP2-G AP2 domain (GST-tagged). Description: gcPBM binding intensity (ln(normalized median fluorescence intensity)); higher = stronger DNA binding. The procedure, abridged: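 An Agilent 4 × 180k array carrying primer-extended double-stranded 36-bp intergenic genomic probes and negative controls received GST-tagged P. falciparum DNA-binding domains expressed in E. coli, about 25 μg on average, for 1 h. The binding buffer contained 1× PBS, 1% milk, 0.2 mg/ml BSA, 0.5% salmon testes DNA and 0.03% Triton X-100. Binding intensity is the top Masliner-normalised natural-log median intensity across replicate spots of either probe orientation, read after Alexa488 anti-GST antibody staining and a 488 nm scan.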
For the sequence “AAAGGAAGAAAAAATAGTACATATATATATATATAA [XGTACX_site766]”, the “gcPBM binding intensity (ln)” value turned out to be 11.2 ± 0.87.

In the case of ACAATTTTATTTAAAGTGCATGTAAAATTAAAACTT, the “gcPBM binding intensity (ln)” value is 10.2 ± 0.18.

As to “TATACATTTATGTACACACACATATATGTATATTTA [CACACA_site2966]”, the “gcPBM binding intensity (ln)” value is 11.4 ± 1.

As for “AATAAATATCAATACACACACACAAAAGTGAATAAA [CACACA_site3763]”, the “gcPBM binding intensity (ln)” value is 10.1 ± 0.14.

With “TCCATCCACATATATGTACACACATATATATATATA [CACACA_site8970]”, the “gcPBM binding intensity (ln)” value turned out to be 11.6 ± 0.89.

Turning to “GTTAAGGGTATATATACACACATATGTAATACATGA [CACACA_site5650]”, the “gcPBM binding intensity (ln)” value is 10.2 ± 0.23.

As to “CAATTTTTCTATCATTGTACTTTTATATAATAGTGT [XGTACX_site1810]”, the “gcPBM binding intensity (ln)” value turned out to be 11.4 ± 0.94.

Turning to “AATTGTTCTATGATTTGTACACACTTTTTTTTAAAA [XGTACX_site5984]”, the “gcPBM binding intensity (ln)” value came out at 11.4 ± 0.85.

With “ATTATAAATACACGCACACACACTTATATATATATA [CACACA_site5776]”, the “gcPBM binding intensity (ln)” value was 10.5 ± 0.3.

Take “AAAAAATTGACTAATGCACACAATTACATATATATA [CACACA_site1689]”: the “gcPBM binding intensity (ln)” value worked out at 10.1 ± 0.21.

As to “AAATAGTAAATAAGGGGTACAAAAAAAAAAAAAAAA [XGTACX_site8362]”, the “gcPBM binding intensity (ln)” value was 11.4 ± 1.

Turning to “ATGAAATATATTATATGTACATATTTATTTTTTATA [XGTACX_site7319]”, the “gcPBM binding intensity (ln)” value worked out at 11.3 ± 0.91.

For the sequence “ATTTTTTACGTATAGTACAAAGTTTTATGATACATA [CACACA_negctrl_site965]”, the “gcPBM binding intensity (ln)” value worked out at 10.8 ± 0.45.

As for “CATTATAAAAAATAAAAAAGAAATAATTGTATATGC [CACACA_negctrl_site478]”, the “gcPBM binding intensity (ln)” value was determined as 9.985 ± 0.064.

With “TAATATTGCAAATATAAAAAAAAATAAACCATATAT [XGTACX_negctrl_site458]”, the “gcPBM binding intensity (ln)” value stood at 10.06 ± 0.021.

Consider “TTCTTTTTTAACAACAAAAAAAAAAAAAAAAAAAAA [TGCATGCA_negctrl_site87]”, for which the “gcPBM binding intensity (ln)” value was 9.68 ± 0.47.

For “AAGGAGAAATAAATATTAAAAAATTTATATATATAT [CACACA_negctrl_site1801]”, the “gcPBM binding intensity (ln)” value is 9.74 ± 0.38.

For the sequence “TAAACCTGTAGAGATGCATGCATTGTTAACATGGTG [TGCATGCA_site515]”, the “gcPBM binding intensity (ln)” value is 9.895 ± 0.007.

Take “TTTTTTGCTTTCAACACACATACAATCTATATAATC [CACACA_site4125]”: the “gcPBM binding intensity (ln)” value stood at 10 ± 0.19.

With TTAATTATGGACAGGGTGCACATGAATAATAATACC, the “gcPBM binding intensity (ln)” value came out at 10.9 ± 0.57.

Consider “TATATTATAATAAGACGTACAAGGATGTTAAAACTT [XGTACX_site5828]”, for which the “gcPBM binding intensity (ln)” value is 11.6 ± 1.

On to “GTTTGTATGTCCAAATGTACATATGATTTTATGAAA [XGTACX_site6595]”, for which the “gcPBM binding intensity (ln)” value is 11.2 ± 0.76.

“TACATTAACGGATTATTTCTCAATACAACATCATTT [CACACA_negctrl_site981]”: the “gcPBM binding intensity (ln)” value turned out to be 9.925 ± 0.064.

On to “AAAATATTAATTAATACATGCATATATATATATATA [TGCATGCA_site585]”, for which the “gcPBM binding intensity (ln)” value was 10.2 ± 0.49.

Regarding “TATATTGTATAAAAATGTACATGCAATAAATTTAGT [XGTACX_site5621]”, the “gcPBM binding intensity (ln)” value was determined as 11.2 ± 0.64.

Regarding “AAAAAATATTGAAGTACACACATTATAAACTTTTTT [CACACA_site5029]”, the “gcPBM binding intensity (ln)” value is 11.5 ± 0.76.

Consider “ACCTAATTCAAATACAGTACATATACAATATATATA [XGTACX_site2779]”, for which the “gcPBM binding intensity (ln)” value was found to be 11.1 ± 0.67.

With “AAAATTAAAAATTACTGTACGTATTAGAGAATAAAT [XGTACX_site2567]”, the “gcPBM binding intensity (ln)” value is 11.6 ± 1.

With “TTCTTAAATGTAAATGTATATGTATTAAAAAGAGAA [TGCATGCA_negctrl_site597]”, the “gcPBM binding intensity (ln)” value came out at 9.91 ± 0.18.

Take “TTATAATATTAATGTGCACACAATTAAAATATTATA [CACACA_site2046]”: the “gcPBM binding intensity (ln)” value was 10.4 ± 0.31.

In the case of “TACTGTGTTTTGGTTGTACACACGCTACATTATATA [CACACA_site8863]”, the “gcPBM binding intensity (ln)” value was determined as 11.5 ± 0.84.

On to “AGGATATAAATATTCACACACACATGGAGATATATA [CACACA_site6317]”, for which the “gcPBM binding intensity (ln)” value was 9.825 ± 0.092.

Turning to “ATAGTATACAGACACACACACACACCCATATATATA [CACACA_site1736]”, the “gcPBM binding intensity (ln)” value is 10.3 ± 0.23.

As for “AAATAAATATATAATACACACAAAAATATAAAATGG [CACACA_site5943]”, the “gcPBM binding intensity (ln)” value is 10.16 ± 0.028.

“TATAACTTTTTTATTACACACCTATGTAATATTATA [CACACA_site944]”: the “gcPBM binding intensity (ln)” value turned out to be 9.98 ± 0.057.

As for “AACAGACATAGAAACACACATACATACATACATACA [CACACA_site2479]”, the “gcPBM binding intensity (ln)” value was 10.6 ± 0.25.

With “ATACTAAATGAACACACACACATATATATATATAAT [CACACA_site4232]”, the “gcPBM binding intensity (ln)” value came to 10.1 ± 0.2.

For “AAGGGAAATATTGAAACACACACGAACCCACGTATT [CACACA_site252]”, the “gcPBM binding intensity (ln)” value was determined as 10.165 ± 0.007.

Turning to “ATGTTTTATATTTTTTTTTTGTTTGCTTGTTTCCTC [CACACA_negctrl_site870]”, the “gcPBM binding intensity (ln)” value was found to be 9.84 ± 0.071.

Take “TTATTTATTTATTATAGTTCACTTGAAAATACAAGA [CACACA_negctrl_site1480]”: the “gcPBM binding intensity (ln)” value was 9.96 ± 0.26.

For the sequence “CATATATACAGTAACACACACAAAAAAATATGAATA [CACACA_site3996]”, the “gcPBM binding intensity (ln)” value amounted to 10.13 ± 0.057.

Consider “TTTCTTTTTAACTCTTACATAATAGGTGGTAGAAGG [TGCATGCA_negctrl_site176]”, for which the “gcPBM binding intensity (ln)” value worked out at 10.3 ± 0.36.

For TTGTTGTGTATTATCGTGCACATAATATAAAAGATT, the “gcPBM binding intensity (ln)” value stood at 10.5 ± 0.47.

Turning to “AATAGTGTCATAAAAACTATTATCATATAATGTGAA [CACACA_negctrl_site1578]”, the “gcPBM binding intensity (ln)” value is 9.87 ± 0.085.
